Drawing on PMC8617505 (Proceedings of the National Academy of Sciences of the …, 2021), this text covers Km for one compound.

This experiment concerns GNCA β-lactamase. To be noted: read-out: KM (μM^-1).

For the compound `CC1(C)S[C@@H]2[C@H](NC(=O)Cc3ccccc3)C(=O)N2[C@H]1C(=O)O` [benzylpenicillin], the Km turned out to be 15.1 ± 0.7 µM.
